PubChem BioAssay AID1347120 (National Center for Advancing Translational Sciences (NCATS), 2019)
The whole screen tested about 390,000 compounds, of which about 930 (0.24%) were called active. The shares of active, inactive and inconclusive entries below differ from those in the screen. Calls come from the whole dose curve; as a rule, active = well fitted activation curve with a large enough effect; inconclusive = small, poorly fitted or top-dose-only effect; inactive = no such curve, though single readings can be large or run the other way. A potency beside an inconclusive call is a rough fit, not a confirmed value.

Experiment: qHTS for Suppressors of FUS Proteinopathy: Primary screen using FUS-linked yeast assay; note: nearly all actives have a fitted effect of over 55% in size;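 for growth rescue (activation): plate controls were DMSO vehicle for no effect and reference control for full effect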
Conditions: S. cerevisiae FUS-expressing, OD600, 24 h; Potency: growth rescue; growth rescue (activation): at 76.6 µM (top of the series)
Procedure, shortened: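 Yeast FUS proteinopathy model; galactose-induced FUS (2%), starting OD 0.005. Cpds in dilution series, 24hr, 30C, 99% humidity. Abs 600 nm growth. Pos ctrl CP55940 (top 92uM final); neg ctrl DMSO.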
Potency is the fitted concentration of half-maximal effect; tags give direction and shape of the fitted curve.

Structure (SMILES)	growth rescue (activation)	Potency
Cc1nc(N2CCCCC2)sc1C(=O)c1cccc([N+](=O)[O-])c1	inactive: 19.2%	–
C=CC[C@@H](CC(=O)N(CCO)Cc1ccccc1)C(=O)N[C@H](C)COC(=O)[C@@H](CC=C)Cc1ccc(F)cc1	–	inconclusive: 50.1 µM [activator, single point]
COC(=O)[C@]12C[C@H](CC(=O)NCc3cccs3)C(=O)N(Cc3ccco3)C1=C[C@H](C(C)(C)C)O[C@@H]2C	–	inconclusive: 10 µM [activator, partial curve]
O=C(Nc1nc(OCCN2CCCC2=O)cnc1/C=C\c1ccccc1)c1cc2ccccc2s1	–	active: 39.8 µM
O=C(CCCc1ccccc1)NC1CC(=O)N(c2ccc(F)cc2)C1 (stereo not drawn)	inactive: 25.2%	–
O=C(O)CCc1ccc(-c2ccc(Br)cc2)n1-c1ccc(O)cc1	–	inconclusive: 35.5 µM [activator, partial curve, poor fit]
Cc1ccc(-c2nc(C(=O)NCc3ccccc3Cl)c3n2CCCCC3)cc1	–	inconclusive: 22.4 µM [activator, partial curve]
COc1ccc(CNC(=O)C(c2ccc(C)cc2)N(Cc2cccs2)C(=O)c2ccc3c(c2)OCCO3)cc1 (stereo not drawn)	–	active: 5.01 µM
Cc1cc(Cl)ccc1OCC(=O)N1CCC(c2nc3ccccc3s2)CC1	–	inconclusive: 35.5 µM [activator, single point]
CC(C)CNC(=O)[C@H]1N2C(=O)c3ccccc3C2SC1(C)C (stereo partly drawn)	inactive: 10.9%	–
Cn1c(SCc2nc(-c3ccc(Br)cc3)no2)nnc1-c1ccco1	inactive: 28%	–
O=C(O)CN1C(=O)CSc2ccccc21	–	inconclusive: 11.2 µM [activator, single point]
Cc1ccc2cc(C(c3nnnn3Cc3ccccc3)N3CCN(c4ccccc4)CC3)c(=O)[nH]c2c1 (stereo not drawn)	–	inconclusive: 7.08 µM [activator, partial curve]
O=C1Nc2cc(C(=O)NCCN3CCCCCC3)ccc2S/C1=C/c1ccccc1F	–	inconclusive: 28.2 µM [activator, single point]
Cc1ccc2cccc(NC(=O)C(C)Oc3ccc(Cl)cc3Cl)c2n1 (stereo not drawn)	inactive: -8.28%	–
COC(=O)[C@]12C[C@H](CC(=O)NCCCCc3ccccc3)C(=O)N(Cc3ccc4c(c3)OCO4)C1=C[C@H](C(C)C)O[C@@H]2C1CC1	–	active: 8.91 µM
OC(c1cccc(Cl)c1)c1nc(/C=C/c2ccc(C(F)(F)F)cc2)cs1 (stereo not drawn)	inactive: -6.2%	–
Cc1ccc(Cn2nnc3c(=O)[nH]c(C4CCN(S(=O)(=O)c5ccc(C)cc5)CC4)nc32)cc1	–	inconclusive: 50.1 µM [activator, single point]
Cc1ccc(C)c(Cn2c(C(=O)O)c(CNCc3cccs3)c3ccccc32)c1	–	inconclusive: 31.6 µM [activator, single point]

Structure (SMILES)	growth rescue (activation)	Potency
Cc1cccc(NC(=O)CSc2nnc(-c3ccco3)c(-c3ccco3)n2)c1C	–	inconclusive: 8.91 µM [activator, partial curve, poor fit]
COC(=O)[C@]12C[C@H](CC(=O)NCc3cccc(C(F)(F)F)c3)C(=O)N(Cc3ccc(Cl)cc3Cl)C1=C[C@H](C1CCCC1)O[C@@H]2C	–	inconclusive: 28.2 µM [activator, partial curve, poor fit]
COc1ccc(C2C=C(c3ccccc3)Nc3nc(NC(=O)/C=C/c4ccccc4Cl)nn32)cc1 (stereo not drawn)	–	inconclusive: 44.7 µM [activator, single point]
COc1cccc(NC(=O)CSc2nnc(-c3ccco3)c(-c3ccco3)n2)c1	–	inconclusive: 15.8 µM [activator, partial curve]
CN(C)C1(CN=Cc2cc(Cl)cc([N+](=O)[O-])c2O)CCCCC1	–	inconclusive: 15.8 µM [activator, partial curve, poor fit]
COc1ccc2nc(-c3ccccc3)cc(C(=O)OCC(=O)N3CC(C)OC(C)C3)c2c1 (stereo not drawn)	–	inconclusive: 31.6 µM [activator, single point]
C[C@H](CO)N1C[C@H](C)[C@@H](CN(C)S(C)(=O)=O)Oc2c(NC(=O)Nc3ccc4c(c3)OCO4)cccc2C1=O	inactive: 8.8%	–
CC(=O)c1cc(-c2ccc(-c3cc(C(=O)O)c4ccccc4n3)cc2)c(=O)n2c1CCC2	inactive: -6.4%	–
COCCNC(=S)N(C)[C@H]1C[C@H]2c3cc(Oc4ccccc4C)ccc3CCN2C(=O)[C@H]1[C@H](C)O	–	inconclusive: 28.2 µM [activator, single point]
COc1ccc(/C=N/NC(=O)c2cc(-c3cccc(C)c3)nc3ccccc23)cc1O	–	inconclusive: 35.5 µM [activator, partial curve, poor fit]
O=C(Nc1ccc(F)cc1)C(c1ccnc2ccccc12)N1CCN(c2cccc(C(F)(F)F)n2)CC1 (stereo not drawn)	–	inconclusive: 44.7 µM [activator, single point]
CCOC(=O)/C=C(\C)Sc1cc(O)c2ccccc2c1O	inactive: 16.3%	–
COC(=O)[C@@]12C[C@@H](CC(=O)N3CCC(c4ccccc4)CC3)C(=O)N(Cc3ccccc3)C1=CCC(C)(C)C2	–	inconclusive: 14.1 µM [activator, partial curve, poor fit]
COc1ccc(C(C(=O)NCc2ccccc2)n2c(-c3ccccn3)nc3ccccc32)cc1 (stereo not drawn)	–	inconclusive: 31.6 µM [activator, single point]
COc1ccc(CNC(=O)C[C@H]2C[C@H](C(=O)N3CCCCC3)[C@@]3(CCc4ccccc4)c4[nH]c5ccc(Cl)cc5c4CCN3C2=O)cc1OC	–	inconclusive: 11.2 µM [activator, partial curve, poor fit]
Cc1ccc(C)c(S(=O)(=O)N2CCCCC2CCNC(=O)C(=O)NCc2ccccc2)c1 (stereo not drawn)	–	inconclusive: 39.8 µM [activator, partial curve, poor fit]
O=C(NCc1ccco1)c1ccc(N2CCCCC2)c([N+](=O)[O-])c1	inactive: 16.9%	–
COc1ccc(Oc2c(OC)cc(NCc3ccc(CN)cc3)c3ncccc23)cc1	–	inconclusive: 22.4 µM [activator, single point]
O=C(C1COc2ccccc2O1)N1CCN(c2nc3ccc([N+](=O)[O-])cc3s2)CC1 (stereo not drawn)	inactive: -6.02%	–
